According to PubChem BioAssay AID493208 (National Center for Advancing Translational Sciences (NCATS), 2011):
The whole screen tested about 44,000 compounds, of which about 340 (0.77%) were called active. Roughly 5% stayed inconclusive and do not appear here. Calls follow the shape of the dose curve; as a rule, active = well fitted inhibition curve with a large enough effect; inconclusive = small, poorly fitted or top-dose-only effect; inactive = flat fitted curve, though single readings scatter. The list shows a part of the results.

Test: Acumen qHTS Assay for Inhibitors of the mTORC1 Signaling Pathway in MEF (Tsc2-/-, p53-/-) Cells: Sytravon; also: nearly all actives have a fitted effect of over 50% in size;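 as to activity change, negative = inhibition: plate controls were DMSO for no effect and rapamycin for full effect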
Details: phospho-rpS6 immunofluorescence/PI, 24 h; series mostly up to 38.3 µM; activity change, negative = inhibition: at the top concentration
In short: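 Read-out: phospho-S6 Alexa-488 intensity over PI intensity per well, scored as % active cells using thresholds from rapamycin (7.5 nM) and DMSO controls. Tsc2-/-, p53-/- MEFs exposed to compound for 24 h; PI cell count recorded as viability.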
Potency is read from the fitted curve at half-maximal effect.

SMILES | Potency | activity change, negative = inhibition
CCc1nn(CC(=O)NCc2ccccc2Cl)c(=O)c2cccn12 | active: 2610 nM | –
Cc1nc(-c2ccc(S(=O)(=O)Nc3ccc(C)c(N(C)C)c3)cc2)co1 | – | inactive: -7.48%
COc1ccc(CCNC(=O)c2ccc3c(c2)N(Cc2ccc(F)cc2)CCS3)cc1OC | – | inactive: -5.18%
Cc1cc(C)cc(NC(=O)c2cccc3c2C(=O)N(C2CCCCC2)C3)c1 | – | inactive: -5.82%
O=C(COc1ccccc1[N+](=O)[O-])Nc1ccc(-c2nc3ccccc3s2)cc1 | – | inactive: -0.132%
Cc1nc(SCC(=O)Nc2ccccc2F)[nH]c(=O)c1Cc1ccccc1 | – | inactive: -4.06%
O=S(=O)(c1ccccc1)c1nc(-c2cccs2)oc1SCc1ccc(F)cc1 | – | inactive: -2.03%
COc1ccccc1-n1c(-c2ccc(C)cc2)cn2c3c(=O)n(C)c(=O)n(C)c3nc12 | – | inactive: 9.75%
COc1ccc(S(=O)(=O)c2cc(NS(=O)(=O)c3ccc(Cl)cc3)c(C)c(C)c2O)cc1 | – | inactive: 1.01%
COc1ccc(NC(=O)c2cnc[nH]2)cc1 | – | inactive: -1.84%
COc1ccc(-c2cn3nc(SCC(=O)Nc4ccc(C)c(Cl)c4)ccc3n2)cc1 | – | inactive: 6.88%
COC(=O)c1ccc(NC(=O)CN2C(=O)c3cccc4cccc2c34)cc1 | – | inactive: 7.39%
Cc1ccc(NC(c2ccc(Cl)cc2)c2nnc(-c3cccc(F)c3)o2)cc1C (stereo unspecified) | – | inactive: -12.3%
CCN(CCCNC(=O)c1cc(Nc2ccccc2OC)nc2ccccc12)c1cccc(C)c1 | – | inactive: -15%
COc1ccc(-c2noc(C3CC(=O)N(c4ccccc4)C3)n2)c(OC)c1 (stereo unspecified) | – | inactive: -2.74%
COc1ccc(OC)c(CCNC(=O)c2c3c(nc4ccccc24)C(=O)N(C2CCCCC2)C3)c1 | – | inactive: 1.62%
Cc1cc(C)c(NC(=O)COc2ccc3c(C)cc(=O)oc3c2)c(C)c1 | – | inactive: 2.22%
O=C(CSc1nc2c([nH]c3ccccc32)c(=O)n1-c1ccc(Cl)cc1)N1CCCC1 | – | inactive: -1.64%
CCOc1ccc(S(=O)(=O)c2cn(Cc3cc(C)ccc3C)c3ccc(OCC)cc3c2=O)cc1 | – | inactive: 2.7%
CCOC(=O)Cn1c(=O)oc2cc(S(=O)(=O)N3CCN(c4ccc(C(C)=O)cc4)CC3)ccc21 | – | inactive: -0.575%
COc1ccc(NC(=O)Cn2nc(C)c3nn(-c4ccc(Cl)cc4)c(C)c3c2=O)cc1 | – | inactive: 11.6%

SMILES | Potency | activity change, negative = inhibition
COc1cccc(Nc2nc3cc(Cl)c(Cl)cc3nc2-n2nc(C)cc2C)c1 | – | inactive: -0.745%
CC1CCN(c2oc(/C=C/c3ccc(F)cc3)nc2C#N)CC1 | – | inactive: -3.18%
CCOc1ccc(NC(=O)c2cc(S(=O)(=O)N3CCOCC3)ccc2F)cc1 | – | inactive: 11.6%
CCCOC(=O)c1ccc(Cn2nnc3sc4c(c3c2=O)CCC(C)C4)cc1 (stereo unspecified) | – | inactive: -0.856%
COc1ccccc1CNC(=O)c1cnc(N2CCCC2)nc1C | – | inactive: 0%
CCc1c(C)sc2c1CCN(C(=O)Nc1ccc(F)c(Cl)c1)C2c1ccc(F)cc1 (stereo unspecified) | – | inactive: 0%
CCOc1ccc(-c2nc(Cn3c(=O)cc(C)c4c(C)nn(-c5ccc(C)cc5)c43)c(C)o2)cc1 | – | inactive: -0.503%
COc1ccc(CCNC(=O)CCn2c(=O)c3ccccc3n(CC(=O)Nc3ccc(C)cc3C)c2=O)cc1OC | – | inactive: 2.71%
O=C(Nc1ccccc1)C1CCN(S(=O)(=O)c2ccc3[nH]c4c(c3c2)CCCCC4)CC1 | – | inactive: -11.2%
COc1ccccc1NC(=O)C1=C(C)Nc2nc(SCc3ccccc3)nn2C1c1cccnc1 (stereo unspecified) | – | inactive: 8.74%
O=C(Nc1ccc(Cl)cc1)N1CCN(c2ccc3nnc(-c4ccccc4)n3n2)CC1 | – | inactive: -2.81%
CCOc1ccc(NC(=O)c2cc3c(=O)n(Cc4cccs4)ccc3nc2C)cc1 | – | inactive: -9.57%
Cn1c(=O)c2c(c3ccccc31)OC(=O)CC2c1cccc(F)c1 (stereo unspecified) | – | inactive: 0.692%
O=C(C1CCC(Cn2c(=O)c3sccc3n(Cc3ccccc3F)c2=O)CC1)N1CCCCC1 (stereo unspecified) | – | inactive: -16.5%
COc1ccccc1N(CC(=O)NCCSCc1cccc(Cl)c1)S(C)(=O)=O | – | inactive: -12.9%
CCCCNC(=O)C1CCN(S(=O)(=O)c2ccc3c(ccn3CC)c2)CC1 | – | inactive: -1.72%
Cc1cc(C)c(NC(=O)c2ncoc2-c2ccco2)c(C)c1 | – | inactive: 0%
Cc1cc(C)cc(NC(=O)CSc2nnc(-c3cc4occc4n3C)n2-c2ccccc2C)c1 | – | inactive: -5.16%
COc1ccc2c(CNC3CCCCCC3)c(C(=O)O)n(Cc3cccc(F)c3)c2c1 | – | inactive: -7.27%
O=S(=O)(NCCc1csc2nc(-c3ccccc3)nn12)c1ccc(Cl)s1 | – | inactive: -7.24%
CCN(CC)CCSc1nnc2c3cc(F)ccc3n(C)c2n1 | – | inactive: -4.21%

SMILES | Potency | activity change, negative = inhibition
CCOC(=O)c1c(C)[nH]c(CCC(=O)Nc2ccc(Cl)cc2C)c1C | – | inactive: 6.37%
COC(=O)c1ccc(OC)c(CN2C(=O)N(c3ccc(C(C)=O)cc3)S(=O)(=O)c3ccccc32)c1 | – | inactive: -3.97%
COc1ccc(-c2noc(CNS(=O)(=O)c3ccc(Br)cc3)n2)cc1OC | – | inactive: 4.09%
Cc1ccc(-c2noc(CN(C(=O)COc3cc(C)cc(C)c3C)C(C)C)n2)cc1 | – | inactive: -1.52%
Cc1ccc(C)c(CN2C(=O)c3ccccc3S(=O)(=O)c3ccc(C(=O)NCc4ccccc4)cc32)c1 | – | inactive: -0.13%
Cc1cccc(OCCCn2c(CCNC(=O)C(C)(C)C)nc3ccccc32)c1 | – | inactive: 2.67%
CCCN1CCc2nc(N3CCN(c4ncccn4)CC3)ncc2C1 | – | inactive: 3.44%
Cc1cccc(OCCSc2nc3ccc(NC(=O)COc4ccccc4)cc3s2)c1 | – | inactive: -6.41%
CCn1cc2nc(SCc3cc(C)ccc3C)n(Cc3ccc(OC)cc3)c(=O)c2n1 | – | inactive: 3.08%
Cc1ccc2c(=O)c(C(=O)c3ccc(F)cc3)cn(CC(=O)NCCc3ccccc3)c2n1 | – | inactive: -29.1%
CCOCCCNC(=O)C(=O)Nc1c2c(nn1-c1ccc(OC)cc1)CSC2 | – | inactive: -4.57%
CCOc1ccc(C(=O)Nc2ccc3oc(-c4cccnc4)nc3c2)cc1 | – | inactive: -0.485%
COc1ccc(S(=O)(=O)Nc2cc3c(cc2NCc2ccccc2)n(C)c(=O)n3C)cc1 | – | inactive: -1.36%
COc1ccc(CN(Cc2ccco2)c2cnc(S(C)(=O)=O)nc2C(=O)Nc2ccc(C)cc2C)cc1 | – | inactive: 0.388%
Cc1c(C(=O)NCc2ccccc2Cl)sc2nc[nH]c(=O)c12 | – | inactive: -2.67%
Cc1csc2nc(COC(=O)CNC(=O)c3ccccc3Cl)cc(=O)n12 | – | inactive: -0.922%
O=C(Nc1c(C(=O)N2CCN(c3ccccc3F)CC2)oc2ccccc12)c1ccccc1F | – | inactive: 2.82%
Cc1ccc(-n2nc3c(=O)n(CCCC(=O)NCc4ccccc4F)nc(C)c3c2C)cc1 | – | inactive: -7.08%
CN1CCN(CCCNC(=O)c2ccc3nc(Cc4ccccc4)oc3c2)CC1 | – | inactive: 7.02%
